Measured values reported in PubChem BioAssay (NCATS).
Several values for one entry are separate records, joined by “and”; a condition that tells them apart may be missing. Identical values can stand only once. The shares of active, inactive and inconclusive entries below differ from those in the screen. For some assays here: Potencies of inconclusive entries are doubtful fits and often do not repeat. Activity calls are given as the source filed them. Calls follow the shape of the dose curve; as a rule, active = well fitted curve in the direction sought with a large enough effect; inconclusive = small, poorly fitted or top-dose-only effect, or another doubt; inactive = no such curve, though single readings can be large; an effect the other way counts as inactive or inconclusive.

Tests used:
[1] = tested on: Hek293T; test: Primary qHTS to identify gynecologic anti-cancer compounds using libraries of approved drugs and bioactive compounds (AID 1345084); settings: Gynecologic cancer cell panel viability, ATPlite luminescence, 48 h, control line for the selectivity index; series mostly up to 57.5 µM; also: nearly all actives have a fitted effect of over 55% in size
Summary of the method: (§1)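 48 h compound exposure at 37 C, 5% CO2; five-point qHTS. ATPlite luminescence readout of cell ATP.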

[2] = tested on: JEG-3; test: as above; settings: Gynecologic cancer cell panel viability, ATPlite luminescence, 48 h; series mostly up to 57.5 µM
Summary of the method: as §1

[3] = tested on: PA-1; test: as above; settings: Gynecologic cancer cell panel viability, ATPlite luminescence, 48 h; series mostly up to 57.5 µM
Summary of the method: as §1

[4] = tested on: SKOV3; test: as above; settings: Gynecologic cancer cell panel viability, ATPlite luminescence, 48 h; series mostly up to 57.5 µM
Summary of the method: as §1

[5] = tested on: OV90; test: as above; settings: Gynecologic cancer cell panel viability, ATPlite luminescence, 48 h; series mostly up to 57.5 µM
Summary of the method: as §1

[6] = tested on: Tov-21-G; test: as above; settings: Gynecologic cancer cell panel viability, ATPlite luminescence, 48 h; series mostly up to 57.5 µM
Summary of the method: as §1

[7] = tested on: Tov112D; test: as above; settings: Gynecologic cancer cell panel viability, ATPlite luminescence, 48 h; series mostly up to 57.5 µM
Summary of the method: as §1

[8] = qHTS assay to identify inhibitors of the type 1 interferon - major histocompatibility complex class I in skeletal muscle: Counter screen cell viability and HiBit confirmation (AID 1347412); settings: iHSKM muscle cells + IFN-b, HiBiT or CellTiter-Glo, 24 h; for activity change, negative = inhibition: at 45.9 µM (top of the series); as to all read-outs here: nearly all actives have a fitted effect of over 60% in size
Summary of the method: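 CRISPR HLA-B*08:01-HiBit immortalized human myoblasts (C25cl48) stimulated with 4 ng/ml IFN-beta and compounds (12-point 1:3, top 46 uM final) for 24 h at 37 C. Duplicate plates read by HiBit lytic luminescence or CellTiter Glo ATP.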

[9] = Drug repurposing screens with cells derived from glioblastoma tumor samples (AID 1345199); settings: GBM patient neurospheres viability, ATP luminescence, 48 h; Potency: tumour line A unless noted; activity, negative = cell killing: at 46 µM (top of the series), tumour line A unless noted; also: nearly all actives have a fitted effect of over 40% in size
Summary of the method: (§2)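 Four patient lines of CD133+ GBM neurospheres were screened at several concentrations; hits were retested in those lines plus three slower-growing GBM lines, using 48-hour treatment and ATP-based viability.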

[10] = tested on: astro; test: as above; settings: viability, ATP luminescence, 48 h; series mostly up to 45.9 µM
Summary of the method: as §2
% is scaled to controls: 0 for no effect and ±100 for the full control effect; potency is read from the fitted curve at half-maximal effect; tags tell the direction and shape of the fitted curve.

Cc1cccc2c1CC[C@H](CN1CCC(c3c(Cl)cccc3Cl)CC1)C[C@@H]2O
Potency [1]: inconclusive: 31.6 µM [cytotoxic, partial curve]
Potency [2]: inconclusive: 22.4 µM [cytotoxic, single point]
Potency [3]: active: 11.2 µM
Potency [4]: inconclusive: 39.8 µM [cytotoxic, single point]

CN1CCN(Cc2ccc(NC(=O)Nc3ccc(Oc4cc(NC(=O)C5CC5)ncn4)cc3)cc2C(F)(F)F)CC1
Potency [1]: active: 1.41 µM
Potency [2]: active: 2.82 µM
Potency [5]: active: 0.631 µM
Potency [3]: active: 0.794 µM
Potency [4]: inconclusive: 7.94 µM [cytotoxic, partial curve, poor fit]
Potency [6]: inconclusive: 0.562 µM [cytotoxic, full curve, poor fit]
Potency [7]: active: 0.708 µM
activity change, negative = inhibition ([8]; Viability): inactive: 13.9%

CC(C)n1nc(-c2ccc3oc(N)nc3c2)c2c(N)ncnc21
Potency [1]: active: 0.316 µM
Potency [2]: inconclusive: 22.4 µM [cytotoxic, partial curve]
Potency [5]: active: 0.316 µM
Potency [3]: inconclusive: 0.562 µM [cytotoxic, full curve, poor fit]
Potency [4]: inconclusive: 0.316 µM [cytotoxic, full curve, poor fit]
Potency [6]: active: 0.316 µM
Potency [7]: inconclusive: 0.1 µM [cytotoxic, full curve, poor fit]
Potency ([8]; Viability): inconclusive: 0.176 µM [cytotoxic, full curve]

C[C@]12CC[C@H](O)CC1=CCC1C2CC[C@]2(C)C(n3cnc4ccccc43)=CCC12 (stereo partly specified)
Potency [1]: inactive

S=c1nc[nH]c2nc[nH]c12
Potency [1]: active: 15.8 µM
Potency [2]: active: 3.55 µM
Potency [5]: active: 7.08 µM
Potency [4]: inactive
Potency [6]: active: 3.16 µM
activity, negative = cell killing [9]: inconclusive: -31.3% [inhibitor] [at 45.9 µM, tumour line B]

COc1cc2nc(N3CCN(C(=O)c4ccco4)CC3)nc(N)c2cc1OC
Potency [1]: inconclusive: 11.2 µM [cytotoxic, single point]
Potency [2]: inconclusive: 17.8 µM [cytotoxic, single point]
Potency [5]: inconclusive: 15.8 µM [cytotoxic, single point]
Potency [3]: inconclusive: 11.2 µM [cytotoxic, single point]
Potency [4]: inconclusive: 11.2 µM [cytotoxic, partial curve]
Potency [6]: inconclusive: 20 µM [cytotoxic, partial curve, poor fit]

Cc1cc(C(=O)N2CCN(c3cccc(Cl)c3)CC2)n(-c2ccccc2)n1
Potency [1]: inconclusive: 3.16 µM [cytotoxic, full curve, poor fit]
Potency [2]: inconclusive: 20 µM [cytotoxic, single point]
Potency [4]: inconclusive: 0.631 µM [cytotoxic, full curve, poor fit]
Potency [6]: inconclusive: 3.55 µM [cytotoxic, full curve]
Potency ([8]; HiBiT): inconclusive: 27.9 µM [inhibitor, partial curve, poor fit]

CC[C@@]1(O)C(=O)OCc2c1cc1n(c2=O)Cc2cc3cc(O)ccc3nc2-1
activity change, negative = inhibition ([8]; Viability): inactive: 8.39%

CNC(=O)c1cc(Oc2ccc(NC(=O)Nc3ccc(Cl)c(C(F)(F)F)c3)c(F)c2)ccn1
activity change, negative = inhibition ([8]; Viability): inactive: 2.73%

CC(C)(C)c1nc(-c2cccc(NS(=O)(=O)c3c(F)cccc3F)c2F)c(-c2ccnc(N)n2)s1
Potency [5]: inactive
Potency [4]: inconclusive: 8.91 µM [cytotoxic, single point]
Potency [6]: inconclusive: 1 µM [cytotoxic, full curve, poor fit]
Potency ([8]; HiBiT): inconclusive: 1.57 µM [inhibitor, full curve]

CN1CCN(CCOc2cc(OC3CCOCC3)c3c(Nc4c(Cl)ccc5c4OCO5)ncnc3c2)CC1
Potency [5]: inconclusive: 8.91 µM [cytotoxic, partial curve]
Potency [3]: inconclusive: 8.91 µM [cytotoxic, full curve]
Potency [4]: active: 3.55 µM
Potency [6]: active: 2.24 µM

COc1cc(F)c(F)c(Nc2ccc(I)cc2F)c1NS(=O)(=O)C1(C[C@H](O)CO)CC1
Potency [5]: active: 2.51 µM
Potency [3]: inactive
Potency [6]: inconclusive: 2 µM [cytotoxic, full curve]
Potency [7]: inconclusive: 20 µM [cytotoxic, partial curve, poor fit]

Cn1cnc2c(F)c(Nc3ccc(Br)cc3Cl)c(C(=O)NOCCO)cc21
Potency [5]: inconclusive: 316 nM [cytotoxic, full curve, poor fit] and active: 1.58 µM
Potency [3]: inconclusive: 39.8 µM [cytotoxic, single point]
Potency [6]: inconclusive: 6.31 µM [cytotoxic, partial curve] and inconclusive: 562 nM [cytotoxic, full curve]
Potency [10]: inconclusive: 7.08 µM [inhibitor, partial curve]
